Laboratory results reported in the RNAGym collection of RNA variant scans (doi:10.7554/elife.90254).
The source gives no read counts; variants with many changes may rest on few reads.

B1: OR4K15 (parent)
chain: GUUAACGGUCAUAGGCCAUGGAAACUAGGAGCACCAUUUCGCUGCCAGUGAAGAAAUGAACAAAGAAAAUCUGGGCCAGGCAGGCAUCAAAAGAAAUAGUCUUGCGCUCAACCAGAAAGUCUGUAAUCAUUUUAAGGGUA

Variants of: B1
Assay: self-cleavage, relative activity (ratio to wild type); higher = more cleavage; in vitro, sequencing; the parent is a self-cleaving ribozyme

Row | Variant | self-cleavage
1 | GUUAACGGUCAUAGGCCAUGGAAACUAGGAGCACCAUUUCGCUGCCAGUGAAGAAAUGAACAAAGAAAAUCAGGGCCAGGCAGGCAUCAAAAGAAAUAGUCUUGCACUCAACCAGAAAGUCUGUAAUCAUUUUAAGAGUA [U72A G106A G137A] | 0.01
2 | GUUAACGGUCAUAGGCCAUGGAAACUAGGAGCACCAUUUCGCUGCCAGUGAAGAAAUGAACAAAGAAAAUCCGGGCCGGGCAGGCAUCAAAAGAAAUAGUCUCGCGCUCGACCAGAAAGUCUGUACUCAUUUUAAGGGUA [U72C A78G U103C A110G A126C] | 0
3 | GUUAACGGUCAUAGGCCAUGGAAACUAGGAGCACCAUUUCGCUGCCAGUGAAGAAAUGAACAAAGAAAAUCAGGGCCAGGCAGGCAUCAAAAGAAAUAGUCUUGCGCCCAACCAGAGAGUCUGUAAUCAUUUUAAGGGUA [U72A U108C A117G] | 0.01
4 | GUUAACGGUCAUAGGCCAUGGAAACUAGGAGCACCAUUUCGCUGCCAGUGAAGAAAUGAACAAAGAAAAUCAGGGCCAGGCAGGCUUCAAAAGAAGUAGUCUUGCGCUCAACCAGAAAGUCUGUAAUCAUUUUAAGGGUA [U72A A86U A96G] | 0.07
5 | GUUAACGGUCAUAGGCCAUGGAAACUAGGAGCACCAUUUCGCUGCCAGUGAAGAAAUGAACAAAGAAAAUCAGGGCCAGGCAGGCAUCAAAAGAAAUAGUCUUGCGCUCAACCGGAAAGUCUGUAACCAUUUUAAGGGUA [U72A A114G U127C] | 0.04
6 | GUUAACGGUCAUAGGCCAUGGAAACUAGGAGCACCAUUUCGCUGCCAGUGAAGAAAUGAACAAAGAAAAUAUGGGCCAGGCAGGCAUCAAAAGAAAUAGUCUUGCGCUCAACUAGAAAGUCUGUAAUCCUUUUAAGGGUA [C71A C113U A129C] | 0.01
7 | GUUAACGGUCAUAGGCCAUGGAAACUAGGAGCACCAUUUCGCUGCCAGUGAAGAAAUGAACAAAGAAAAUCAGGGCCAGGCAGGCAUUAAAAGGAAUAGUCUUGCGCUCAACCAGAAAGUCUGUAAUCAUUUUAAGGGUA [U72A C88U A94G] | 0.39
8 | GUUAACGGUCAUAGGCCAUGGAAACUAGGAGCACCAUUUCGCUGCCAGUGAAGAAAUGAACAAAGAAAAUCAGGGCCAGGCAGGCAUCGAAAGGAAUAGUCUUGCGCUCAACCAGAAAGUCUGUAAUCAUUUUAAGGGUA [U72A A89G A94G] | 0.24
9 | GUUAACGGUCAUAGGCCAUGGAAACUAGGAGCACCAUUUCGCUGCCAGUGAAGAAAUGAACAAAGAAAAUCAGGGCCAGGCAGGCAUCAAAAGAAAUAGUCUUGCGCUCAGCCAGAAAGUCUGUAACCAUUUUAAGGGUA [U72A A111G U127C] | 0
10 | GUUAACGGUCAUAGGCCAUGGAAACUAGGAGCACCAUUUCGCUGCCAGUGAAGAAAUGAACAAAGAAAAUCAGGGCCAGGCAGGCAUCAAAAGGAAUAGUCUUGCGCUCAACCAGAAAGUCUGUAAUCAUUUUAGGGGUA [U72A A94G A135G] | 0.24
11 | GUUAACGGUCAUAGGCCAUGGAAACUAGGAGCACCAUUUCGCUGCCAGUGAAGAAAUGAACAAAGAAAAUUAGGGCCAGGCAGGCAUCAAAAGGAAUAGUCUUGCGCUCUACCAGAAAGUCUGUAAUCAUUUUAAGGGUA [C71U U72A A94G A110U] | 0.09
12 | GUUAACGGUCAUAGGCCAUGGAAACUAGGAGCACCAUUUCGCUGCCAGUGAAGAAAUGAACAAAGAAAAUCCGGGCCGGGCAGGCAUCAAAAGAAAUAGUCUUGCGCCCAACCGGAAAGUCUGUAAUCAUUUUAAGGGUA [U72C A78G U108C A114G] | 0
13 | GUUAACGGUCAUAGGCCAUGGAAACUAGGAGCACCAUUUCGCUGCCAGUGAAGAAAUGAACAAAGAAAAUCAGGGCCAGGCAGGCAUCAAAAGAAAUAGUCUUGCGCUCAACCGGAUAGUCUGUAAUCAUUUUAAGGGUA [U72A A114G A117U] | 0.54
14 | GUUAACGGUCAUAGGCCAUGGAAACUAGGAGCACCAUUUCGCUGCCAGUGAAGAAAUGAACAAAGAAAAUCAGGGCCAGGCAGGCAUCAAAGGAAAUAGUCUUGCGCUCAACCAGGAAGUCUGUAACCACUUUAAGGGUA [U72A A92G A116G U127C U130C] | 0.03
15 | GUUAACGGUCAUAGGCCAUGGAAACUAGGAGCACCAUUUCGCUGCCAGUGAAGAAAUGAACAAAGAAAAGCUGGGCCAGGCAGGCAUCGAAAGAAGUAGUCUUGCGCACAACCAGAAAGUCUGUAAUCAUUUUAAGGGUA [U70G A89G A96G U108A] | 0.01
16 | GUUAACGGUCAUAGGCCAUGGAAACUAGGAGCACCAUUUCGCUGCCAGUGAAGAAAUGAACAAAGAAAAUCAGGGCCAGGCAGGCAUCAAAAGAAAUAGUCUUGCGCUCAACCAGAAGGUCUGUAAACAUUUUAAGGGUC [U72A A118G U127A A140C] | 0.03
17 | GUUAACGGUCAUAGGCCAUGGAAACUAGGAGCACCAUUUCGCUGCCAGUGAAGAAAUGAACAAAGAAAAUCAGGGCCAGGCAGGCAUCAAAAGGAAAAGUCUUGCGCUCAACCAGAAAGUCUGUAAUCAUUUUAAGGGUA [U72A A94G U97A] | 0.32
18 | GUUAACGGUCAUAGGCCAUGGAAACUAGGAGCACCAUUUCGCUGCCAGUGAAGAAAUGAACAAAGAAAAUCAGGGCCAGGCAGGCAUCAAAGGAAAUAGUCUUGCGCUCAUCCAGAAAGUCUGUAAUCAUUUUAAGGGUA [U72A A92G A111U] | 0.02
19 | GUUAACGGUCAUAGGCCAUGGAAACUAGGAGCACCAUUUCGCUGCCAGUGAAGAAAUGAACAAAGAAAAUCCGGGCCGGGCAGGCAUCAAAAGAAAUAGUCUUGCGCUCAACCAGAAAGUCUGUAACCAUUUUAAGGGUA [U72C A78G U127C] | 0.18
20 | GUUAACGGUCAUAGGCCAUGGAAACUAGGAGCACCAUUUCGCUGCCAGUGAAGAAAUGAACAAAGAAAAUUUGGGCCAGGCAGGCACCAAAAGAAAUAGUCUUGCGCUCAACCAGAAAGUCUGUAAUCAUUUCAAGGGUA [C71U U87C U133C] | 0.41
21 | GUUAACGGUCAUAGGCCAUGGAAACUAGGAGCACCAUUUCGCUGCCAGUGAAGAAAUGAACAAAGAAAAUCAGGGCCGGGCAUGCAUCAAAAGAAAUAGUCUUGCGCUCAACCAGAAAGUCUGUAAUCAUUUUAAGGGUA [U72A A78G G83U] | 0.16
